Read-outs that look alike come from different tables or passages of the source.
Legend:
[1] = biological target: T1, human PVRIG-mFc protein (Acro, PVG-H5253) (human, UniProt Q6DKI7 41-171, limits assumed); test: competition FACS; blocked: PVRIG-mFc binding to CHO-K1 CD112 cells
T1 construct: bought reagent; also called PVRIG-ECD-mFc
T1 sequence (looked up): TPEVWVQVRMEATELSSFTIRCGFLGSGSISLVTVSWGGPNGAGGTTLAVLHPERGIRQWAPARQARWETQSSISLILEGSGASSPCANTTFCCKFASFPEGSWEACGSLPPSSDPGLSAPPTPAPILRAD

[2] = biological target: T2, cynomolgus monkey PVRIG on FlpinCHO-cyno PVRIG cells (cynomolgus monkey, UniProt A0A2K5WVV8 41-322); test: FACS, FlpinCHO cynomolgus monkey PVRIG cells
T2 construct: whole, on cells; also called FlpinCHO-cynomolgus monkey PVRIG
T2 sequence: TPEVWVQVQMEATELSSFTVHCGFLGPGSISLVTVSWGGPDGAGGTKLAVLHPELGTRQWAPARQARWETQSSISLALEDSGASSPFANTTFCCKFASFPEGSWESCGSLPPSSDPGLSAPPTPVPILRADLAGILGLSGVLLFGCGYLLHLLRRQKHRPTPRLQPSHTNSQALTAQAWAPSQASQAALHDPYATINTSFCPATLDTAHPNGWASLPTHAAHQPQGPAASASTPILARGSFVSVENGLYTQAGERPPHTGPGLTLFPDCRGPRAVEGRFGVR

[3] = biological target: T3, human PVRIG on FlpinCHO-PVRIG cells (human, UniProt Q6DKI7 41-326); test: FACS, FlpinCHO-hPVRIG cells
T3 construct: whole, on cells; also called FlpinCHO-hPVRIG; FlpinCHO-human PVRIG
T3 sequence (looked up): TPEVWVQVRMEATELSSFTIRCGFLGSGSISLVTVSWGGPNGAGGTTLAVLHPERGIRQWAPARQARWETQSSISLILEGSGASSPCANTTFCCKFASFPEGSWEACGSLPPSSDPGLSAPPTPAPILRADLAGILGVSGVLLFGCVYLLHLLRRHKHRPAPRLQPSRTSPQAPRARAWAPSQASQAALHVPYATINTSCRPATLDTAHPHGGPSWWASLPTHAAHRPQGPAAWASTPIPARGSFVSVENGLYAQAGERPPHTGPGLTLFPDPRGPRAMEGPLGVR

[4] = biological target: T4, human PVRIG (AcroBiosystems, Cat NO. PVG-H52H4) (human, UniProt Q6DKI7 41-171, limits assumed); test: ELISA, coated human PVRIG
T4 construct: Bought protein with His tag; also called human PVRIG-his; human PVRIG protein
T4 sequence (looked up): T1 sequence (looked up)

[5] = biological target: T5, human PVRIG-mFc protein (Acro, PVG-H5253) (human, UniProt Q6DKI7 41-171, limits assumed); test: HTRF competition, PVRIG-mFc with Bio-CD112-His as competitor
T5 construct: extracellular domain; Bought protein; also called PVRIG-ECD-mFc; not shown: mouse Fc tag of the bought protein
T5 sequence (looked up): T1 sequence (looked up)

[6] = biological target: T6, cynomolgus monkey TIGIT ECD-mFc (cynomolgus monkey); test: ELISA, cynomolgus TIGIT ECD-mFc captured by anti-mouse IgG
T6 construct: also called cynomolgus monkey TIGIT protein

hPVRIG = biological target: T7, hPVRIG (human, UniProt Q6DKI7 41-171, limits assumed); test: SPR (BIAcore), antibody captured on Protein A, antigen as analyte
T7 sequence (looked up): T1 sequence (looked up)

cynoTIGIT = cynoTIGIT (cynomolgus monkey, UniProt A0A7N9I9V4 89-209); test: as above
cynoPVRIG = biological target: T8, cynoPVRIG (cynomolgus monkey, UniProt A0A2K5WVV8 41-171); test: as above
T8 sequence: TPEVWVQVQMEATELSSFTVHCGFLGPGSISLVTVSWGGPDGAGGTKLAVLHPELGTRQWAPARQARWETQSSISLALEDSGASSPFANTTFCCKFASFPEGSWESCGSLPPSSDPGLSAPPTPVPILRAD

[7] = biological target: T9, cynomolgus monkey PVRIG (Novoprotein, Cat NO. C09B) (cynomolgus monkey, UniProt A0A2K5WVV8 41-171); test: ELISA, coated cynomolgus PVRIG
T9 construct: Bought protein; construct not described; also called cynomolgus monkey PVRIG protein
T9 sequence: T8 sequence

[8] = biological target: T4, human PVRIG (AcroBiosystems, Cat NO. …); test: ELISA, coated human PVRIG; remark: listed apart in the source
[9] = biological target: T9, cynomolgus monkey PVRIG (Novoprotein, …); test: ELISA, coated cynomolgus PVRIG; remark: listed apart in the source

Chain of cynoTIGIT (A0A7N9I9V4 entry or part of it): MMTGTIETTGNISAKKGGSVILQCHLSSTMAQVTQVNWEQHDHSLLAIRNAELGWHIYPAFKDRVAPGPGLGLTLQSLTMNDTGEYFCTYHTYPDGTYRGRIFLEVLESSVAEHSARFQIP

B1: LC-BsAb-009 (bispecific antibody, human IgG1, kappa)
heavy: EVQLVESGGGLVQPGGSLRLSCAASGRTFDRHTMSWFRQAPGKEREFVATASRIPGDTYYVDSVKGRFTISRDNAKNSLYLQMNSLRAEDTAVYYCAATSAYCSEVDCYEKGSWYDNWGQGTMVTVSSGGGGSGGGGSGGGGSGGGGSEVQLQESGPGLVKPSETLSLTCAVSGYSITSDSWNWIRQPPGKKLEYIGYISYSGNTYYNPSLKSRVTISRDTSKNQFSLKLSSVTAADTAVYYCARLDFSNYGGAVDYWGQGTTVTVSS[skipping human IgG1 constant region]
light: DIVMTQSPDSLAVSLGERATINCKASQNVRTAVAWYQQKPGQSPKLMIYSASYRYTGVPDRFSGSGSGTDFTLTISSLQAEDVAVYYCQQYYTTPWTFGGGTKVEIKRTVAAPSVFIFPPSDEQLKSGTASVVCLLNNFYPREAKVQWKVDNALQSGNSQESVTEQDSKDSTYSLSSTLTLSKADYEKHKVYACEVTHQGLSSPVTKSFNRGEC
notes: HC: PVRIG-A105-H1 + (G4S)4 linker + TIGIT-002-H4L3 VH + constant; LC: TIGIT-002-H4L3 VL + kappa; also called anti-PVRIGxTIGIT humanized bispecific antibody
With B1 the “IC50 (read off the curve)” value [1] was roughly 0.9 nM, the “EC50 (read off the curve)” value [2] was roughly 0.5 nM and the “EC50 (read off the curve)” value [3] was roughly 0.6 nM.

B2: LC-BsAb-002 (bispecific antibody, human IgG1, kappa)
heavy: EVQLVESGGGLVQPGGSLRLSCAASGFTFSYYDMSWVRQAPGKGLEWVSTINSDGGRTSYVDSVKGRFTISRDNSKNTLYLQMNSLRAEDTAVYYCVEGDPHNFGLESLSLRDFGSWGQGTMVTVSSGGGGSGGGGSGGGGSGGGGSEVQLQESGPGLVKPSETLSLTCAVSGYSITSDSWNWIRQPPGKKLEYIGYISYSGNTYYNPSLKSRVTISRDTSKNQFSLKLSSVTAADTAVYYCARLDFSNYGGAVDYWGQGTTVTVSS[skipping human IgG1 constant region]
light: B1 light
notes: HC: PVRIG-A50-H1b + (G4S)4 linker + TIGIT-002-H4L3 VH + human IgG1 constant; LC: TIGIT-002-H4L3 VL + kappa; also called anti-PVRIGxTIGIT humanized bispecific antibody
With B2 the “IC50 (read off the curve)” value [1] was roughly 0.9 nM.

B3: LC-BsAb-002 (bispecific antibody, human IgG1, kappa)
heavy: B2 heavy
light: B1 light
notes: Heavy chain fusion: PVRIG-A50-H1b - (G4S)4 linker - TIGIT-002-H4L3 VH - human IgG1 constant region; also called anti-PVRIGxTIGIT humanized bispecific antibody
In the case of B3, the “% relative activity PVRIG-A50-H1b/tested antibody” value [4] is reported as 66.1%, the EC50 [4] is reported as 0.574 nM and the “% relative activity PVRIG-A50-H1b/tested antibody” value [5] is reported as 186%. For the same binder, the IC50 [5] was 0.11 nM, the EC50 [6] was 0.0554 nM and the Kd (hPVRIG) was 0.19 nM. The koff (hPVRIG) was 5.87e-05 s⁻¹, the kon (hPVRIG) was 309000 M⁻¹ s⁻¹ and the Kd (cynoTIGIT) was 13.1 nM. The koff (cynoTIGIT) was 0.00643 s⁻¹, the kon (cynoTIGIT) was 492000 M⁻¹ s⁻¹ and the Kd (cynoPVRIG) was 3.66 nM. The koff (cynoPVRIG) was 0.000131 s⁻¹, the kon (cynoPVRIG) was 35700 M⁻¹ s⁻¹ and the “% relative activity PVRIG-A50-H1b/tested antibody” value [7] was 86.4%. For the same binder, the EC50 [7] was 0.044 nM.

B4: LC-BsAb-009 (bispecific antibody, human IgG1, kappa)
heavy: B1 heavy
light: B1 light
notes: Heavy chain fusion: PVRIG-A105-H1 - (G4S)4 linker - TIGIT-002-H4L3 VH - human IgG1 constant region; also called anti-PVRIGxTIGIT humanized bispecific antibody
Work on B4 yielded an IC50 [5] of 0.196 nM, an EC50 [8] of 0.0607 nM and an EC50 [9] of 0.0256 nM. The EC50 [6] was 0.0418 nM.
